# Results published in PubChem BioAssay AID686979 (National Center for Advancing Translational Sciences (NCATS), 2013).
# Hit rate of the full screen: of about 420,000 compounds, about 50,000 (12%) were called active. This list was built around the results that the source calls inconclusive (neither active nor inactive); the mix of calls is not that of the screen. Calls follow the shape of the dose curve; as a rule, active = well fitted inhibition curve with a large enough effect; inconclusive = small, poorly fitted or top-dose-only effect; inactive = flat fitted curve, though single readings scatter. No potency is given beside an inconclusive call; the fits are too rough. Some structures have more than one record in an assay (separate samples or runs), and their calls can disagree.
# Test: qHTS for Inhibitors of human tyrosyl-DNA phosphodiesterase 1 (TDP1): qHTS in cells in presence of CPT; also: nearly all actives have a fitted effect of over 55% in size
# Settings: chicken DT40 Tdp1-/-;hTDP1 cells + 20 nM CPT, ATP luminescence, 48 h; activity change, negative = growth inhibition: at 46.2 µM (top of the series) unless noted
# Summary of the method: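 Chicken DT40 Tdp1-/- cells stably complemented with human TDP1 were seeded at 400 cells/well in medium containing 20 nM camptothecin, exposed to pin-transferred compounds, and grown at 37 °C for at least 48 hr. Viability was read as ATP luminescence.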
# % is scaled to controls: 0 for no effect and ±100 for the full control effect; potency is read from the fitted curve at half-maximal effect; tags tell the direction and shape of the fitted curve.
Compound,Potency,"activity change, negative = growth inhibition"
CC(C)c1ccc(NC(=O)[C@H]2CSCN2C(=O)[C@@H]2CCC(=O)N2)cc1,"inconclusive [inhibitor, partial curve]",–
CC(=O)c1ccc(OCCCC(=O)Nc2ccc3c(c2)OCCO3)cc1,–,inactive: -17%
COc1ccc(-c2cnc3c(NC(C)=O)cc(-c4cccc(C(=O)N(C)C)c4)cn23)cc1OC,active: 20.6 µM,–
CC(=O)c1ccc(S(=O)(=O)N2CCN(C(=O)CSc3ccc(C)c(C)c3)CC2)cc1,"inconclusive [inhibitor, single point]",–
O=C(N/C=N/OCc1ccc(Cl)cc1Cl)NOCc1ncc(C(F)(F)F)cc1Cl,"inconclusive [inhibitor, single point]",–
CCOC(=O)c1c(C)oc2c1c(C=NC1CCS(=O)(=O)C1)c(O)c1ccccc12 (stereo not given),active: 23.1 µM,–
Cc1ccc(/C=C2/Sc3ccccc3N(CC(=O)NCC3CCCO3)C2=O)cc1 (stereo not given),"inconclusive [inhibitor, single point]",–
CCc1ccc(CNC(=O)c2cnc3c(C)cccn3c2=O)cc1,–,inactive: 5.58%
Cc1ccc(Nc2cc(C)c(C#N)c3nc4ccccc4n23)c(C)c1,active: 14.6 µM,–
Cc1c(Cl)cccc1NC(=O)C1CCN(c2nc3ccccc3[nH]2)CC1,"inconclusive [inhibitor, single point]",–
NC(=O)CC(NC(=O)c1ccc(Br)cc1)c1ccc(N2CCCCCCC2)c([N+](=O)[O-])c1 (stereo not given),active: 20.6 µM,–
CCOC(=O)C1CCCN(S(=O)(=O)c2ccc(OC)cc2)C1 (stereo not given),–,inactive: -22.5%
CCOC(=O)C1=C(C)N(C[C@@H]2CC[C@@H](Cc3ccc(-c4ccccc4)cc3)O2)C(=O)NC1c1ccc(-c2ccccc2)cc1 (stereo not given in full),"inconclusive [inhibitor, single point]",–
Cc1cc(-c2ccc(C)c(S(=O)(=O)NCCN3CCC(C)CC3)c2)on1,"inconclusive [inhibitor, partial curve]",–
Cc1cccc(N2CCN(Cc3cc(=O)oc4cc(C)ccc34)CC2C)c1 (stereo not given),"inconclusive [inhibitor, single point]",–
O=C(NCCSCc1ccccc1)c1ccc(Cl)c(S(=O)(=O)N2CCOCC2)c1,"inconclusive [inhibitor, single point]",–
COc1ccc(CCCNC(=O)C2(C)Cc3c(-c4ccc(C(N)=O)cc4)ccnc3O2)cc1 (stereo not given),"inconclusive [inhibitor, single point]",–
CC(C)c1ccc(CNc2nc(-c3ccco3)nn2S(=O)(=O)c2ccc(F)cc2)cc1,active: 20.6 µM,–
O=C(COc1ccccc1C(=O)NCC1CCCO1)Nc1ccc(Br)cc1 (stereo not given),"inconclusive [inhibitor, single point]",–
CCN1CC(CN(C)Cc2cn(-c3ccc(C)cc3)nc2-c2ccc(F)cc2)CC1=O (stereo not given),"inconclusive [inhibitor, single point]",–
CC(C)(C)c1cc(C(=O)NCc2cc(F)cc3c2OCOC3)n(Cc2ccccc2)n1,"inconclusive [inhibitor, single point]",–
Cc1cccc(NC(=O)N2CCC(N3CCN(Cc4ccccc4)C(=O)C3=O)CC2)c1C,–,inactive: -21.3%
COc1cccc2c(=O)c(C(=O)O)c[nH]c12,–,inactive: -16.9%
COc1ccc(Cc2nc3ccc(C(=O)NCc4cc(C)no4)cc3o2)cc1OC,"inconclusive [inhibitor, single point]",–

Compound,Potency,"activity change, negative = growth inhibition"
CCOc1ccc(OCC(=O)NCCS(=O)(=O)N2CCN(c3cccc(Cl)c3)CC2)cc1,"inconclusive [inhibitor, partial curve]",–
Cc1nc(-c2c(C(F)(F)F)noc2-c2ccc(O)cc2O)cs1,"inconclusive [inhibitor, partial curve]",–
COc1ccc(C2C(C(C)=O)=C(O)C(=O)N2Cc2cccnc2)cc1 (stereo not given),–,inactive: -2.63%
O=C(COc1ccc2ccccc2c1Br)N1CCCCC1,"inconclusive [inhibitor, single point]",–
Cc1ccccc1-c1nc(C(=O)NCC2CCCO2)cc2c1[nH]c1ccccc12 (stereo not given),active: 11.6 µM,–
Cc1ccc(S(=O)(=O)NNc2c3ccccc3nc3ccc(Cl)cc23)cc1,active: 23.1 µM,–
COc1ccc(Cc2nnc(NC(=O)CS(=O)(=O)Cc3ccccc3)s2)cc1,–,inactive: 0.0873%
O=S(=O)(c1ccc(F)c(F)c1)N1CCC2(CC1)OCCO2,–,inactive: 19.7%
Cc1cc(NC(=O)CCC(=O)N(CC(=O)NCC2CCCO2)c2ccc(C)c(C)c2)no1 (stereo not given),–,inactive: 8.2%
CCC(C)Oc1nc2c(c(=O)n(C)c(=O)n2C)n1C (stereo not given),–,inactive: -5.31%
Cn1c(=NC(=O)C2CCN(S(=O)(=O)c3cccs3)CC2)sc2ccccc21,–,inconclusive: -31.4% [inhibitor]
COc1cc(/C=C/C(=O)OCC(=O)NC(=O)NC23CC4CC(CC(C4)C2)C3)ccc1OCC#N,"inconclusive [inhibitor, single point]",–
C1=CCN(Cc2ccccc2)C1,–,inactive: 11.3%
CCC(C)c1ccc(NC(=O)C2CCN(c3ccc(C(F)(F)F)cn3)CC2)cc1 (stereo not given),"inconclusive [inhibitor, single point]",–
COc1cc(N)c(Cc2nccc3cc(OC)c(OC)cc23)cc1OC,"inconclusive [inhibitor, partial curve]",–
CC(C(=O)Nc1cc([N+](=O)[O-])ccc1Cl)N1CCN(c2ccccc2O)CC1 (stereo not given),"inconclusive [inhibitor, single point]",–
O=S(=O)(c1ccccc1)N1CN(Cc2ccc(F)cc2)c2nc3ccccc3nc21,"inconclusive [inhibitor, single point]",–
CCOc1ccc(/C=N/NC(=O)Cc2ccccc2)cc1CN1CC2CC(C1)c1cccc(=O)n1C2 (stereo not given),"inconclusive [inhibitor, single point]",–
Cc1ccccc1NS(=O)(=O)c1ccc(C(=O)NCCCN2CCCC2=O)cc1,–,inactive: -9.71%
FC(F)(F)c1cccc(-c2cc3nc(NCCCn4ccnc4)ccn3n2)c1,"inconclusive [inhibitor, single point]",–
COc1cc(Br)c(C(=O)c2nccc3cc(OC)c(OC)cc23)cc1OC,active: 23.1 µM,–
COc1ccc(C2CN=NC23CCCc2ccccc2C3=O)cc1 (stereo not given),"inconclusive [inhibitor, single point]",–
Cc1noc(C)c1COc1ccccc1C(=O)Nc1ccc(C(N)=O)cc1,–,inactive: 23.5%
O=C(c1cc(-c2ccc(F)cc2)on1)N1CCN(c2ccc(F)cc2)CC1,"inconclusive [inhibitor, single point]",–

Compound,Potency,"activity change, negative = growth inhibition"
C#CCNC(=O)C[C@@H]1C[C@@]2(C(=O)OC)CCCCC=C2N(Cc2ccc(Cl)cc2Cl)C1=O,"inconclusive [inhibitor, single point]",–
O=C(Nc1ccc(Br)cc1)Nc1ccccc1Cl,active: 14.6 µM,–
Nc1cc(N)cc(-c2nc3ccccc3[nH]2)c1,active: 10.3 µM,–
CCCC1N=C2c3ccccc3N=C(SCC(=O)NCCc3ccc(Cl)cc3)N2C1=O (stereo not given),"inconclusive [inhibitor, single point]",–
CCOC(=O)c1sc(NC(=O)CN2C(=O)NC3(CCCCCCC3)C2=O)c(C(=O)OCC)c1C,"inconclusive [inhibitor, single point]",–
CCN(CC)S(=O)(=O)c1cc(NC(=O)Cc2n[nH]c(=O)c3ccccc23)ccc1C,"inconclusive [inhibitor, partial curve]",–
O=C(CN1C(=O)c2cccc3cccc1c23)Nc1ccccc1Br,–,inactive: -11.5%
Cn1nc(C(=O)N2CCN(c3ccccc3F)CC2)c2c1-c1ccccc1S(=O)(=O)C2,active: 14.6 µM,–
CCCC(=O)Nc1sc(C)c(-c2ccc(C(C)CC)cc2)c1C#N (stereo not given),"inconclusive [inhibitor, full curve]",–
CCOC(=O)N1CCN(S(=O)(=O)c2ccc(C)cc2)CC1,–,inactive: -6.99%
COc1ccc(CNC(=O)c2ccc(-c3cccnc3)c3ccoc23)cc1OC,"inconclusive [inhibitor, single point]",–
CC[N+]1=C(C)C(C)(C)c2cc(C)ccc21,active: 8.2 µM,–
CC(C)C[C@H]1CN=C(N(C)C)N1CC1CCCC1,"inconclusive [inhibitor, single point]",–
COc1ccc(/C(C)=N/Nc2nc3ccccc3nc2C)cc1OC,"inconclusive [inhibitor, single point]",–
COC(=O)C1=C(C)N(CCc2ccccc2)C(=O)/C1=C\c1ccco1,"inconclusive [inhibitor, single point]",–
Oc1ccc(/C=N/N(Cc2ccccc2)c2ccccc2)cc1,–,inactive: 22.5%
O=C(O)c1ccc(/C=N/NC(=O)c2cc(-c3ccc4c5c(cccc35)CC4)n[nH]2)cc1,"inconclusive [inhibitor, single point]",–
CSc1cccc(NC(=O)C2CCCN(S(=O)(=O)c3cccs3)C2)c1 (stereo not given),"inconclusive [inhibitor, single point]",–
O=C(N/N=C1\CCCCc2ccccc21)c1ccccn1,–,inactive: -18.7%
COc1cc(/C=N/NC(=O)CCn2c3ccccc3c3ccccc32)ccc1O,"inconclusive [inhibitor, single point]",–
COc1ccc(C)cc1NC(=O)c1cc(C2CC2)nc2c1c(C)nn2C1CCS(=O)(=O)C1 (stereo not given),"inconclusive [inhibitor, single point]",–
CSc1c(CC(=O)NCCCO)n(Cc2ccccc2)c2ccccc12,"inconclusive [inhibitor, single point]",–
